# Measured values as given in the supplement of paper PMC8728848.
# Some of the results follow.
# B1: Epa1-NP-mutant-Y228A (Candida glabrata), Q6VBJ0 (protein)
# chain: MILNPALFLNKCVCIYTTLILLLLTNGGYATSSNDISLASKDPTTFPLGCSPDITTPKKGLSMELYSYDFRKKGSYPCWDAAYLDPNYPRTGYKSHRLLAKVDGVTGNINFYYHATKGCTPQLGHLPASYNYPKPLTMTNFTMLLYGYFRPKVTGFHTFTISADDLLFVNFGAGNAFDCCRRDSSADHFGNYQAYAIWGSKTAKDELTVHLDAGVYYPIRLFYNNREADGALSFTFKTESNENTVSDFSEYFFSLDDTEEGCPGLISYDSSCASVKTSKIIGIDYHTETPNENLVPITKTIYHLGIPCTGTTTTPLCGSGFYDPLANKCVTINTSSTSSVTKTTSHTTSKEVSFHSSISSQKTLIPKSIPSPYGPIKSQSIPTEMETSSEISSSEYAFSDVISTPSHSPYTKKHSSLNSSSYTSTVIHSLTSYSISQGIFSTSLSEQNITSKSSTDKFSTATSMSNNITQSSIIISQFSTNNENYTTTSMHTSSDKISTETLNNSISTTTSILFSNSSTILKNNTTIISSDKDTHYHPVNPTIVCSTNKTEIICASITQPSISNSNNHWSSSVLKFNSTTVRSTLPSSAGSNETSINVPFSSSTESNTSTSSTSTSNSKMVRSTLPSSAGSNETSISVPFSSSTESNTSTSSTSTSNSKMVRSTLPSSAGSNETSINVPFSSSTESNTSTSSTSTSNSKTVRSTPFSSAGIIMTSLSQRNNKSASSYASSNSKCYNTADSCRKVHSTPSYLLTSSYTSEGVDYDCSLVSTKLKINDTNCVNNKHTTKSCLKTSVTTTIPTLEIKTARKSSSNTIGLHSYPTSSPNKSISSAPIIGYISSFKTIKTASPSYQTSDLTTITTITSLNNPGSTAVENTHESNDKSRKTSSNDISSKHSVIKETKDAVESSNKSHQTNTLKCSSIIIASSSHNSYESLGGTTLTLTLSKVYSPQNNDTLPFLEISEVNPSRTVLPESSKMMQYLTSTEERNKTARNTIATNIVSISTFHFEGEGNAIRMGYTQLLLMLIGIIVMNIGT
# Key:
# Assay in all cases: glycan array binding signal (z-score within array); higher = stronger binding
# Conditions in all cases: glycan notation: IUPAC condensed, linker removed; mutation: Y228A
# [1] = target: Gal3S(b1-3)[Fuc(a1-4)]GlcNAc
# Method in brief: (§1)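 The binding signal is a Z-score computed within each array. Data were drawn from 3228 arrays in the Consortium for Functional Glycomics database, restricted to those with a known protein sequence. Scores were averaged over arrays of the same protein sequence at different concentrations or buffers, and over linkers, and negative values can be taken as non-binding.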
# Gal3S(b1-4)Glc = target: Gal3S(b1-4)Glc
# Method in brief: as §1
# Gal3S(b1-4)Glc6S = target: Gal3S(b1-4)Glc6S
# Method in brief: as §1
# Gal3S(b1-4)GlcNAc = target: Gal3S(b1-4)GlcNAc
# Method in brief: as §1
# [2] = target: Gal3S(b1-4)[Fuc(a1-3)]Glc6S
# Method in brief: as §1
# [3] = target: Gal3S(b1-4)[Fuc(a1-3)]GlcNAc
# Method in brief: as §1
# [4] = target: Gal3S(b1-4)[Fuc(a1-3)]GlcNAc6S
# Method in brief: as §1
# Gal3S4S(b1-4)GlcNAc = target: Gal3S4S(b1-4)GlcNAc
# Method in brief: as §1
# Gal3S6S(b1-4)GlcNAc = target: Gal3S6S(b1-4)GlcNAc
# Method in brief: as §1
# Gal3S6S(b1-4)GlcNAc6S = target: Gal3S6S(b1-4)GlcNAc6S
# Method in brief: as §1
# Gal4S(b1-4)GlcNAc = target: Gal4S(b1-4)GlcNAc
# Method in brief: as §1
# Gal4S6S(b1-4)GlcNAc = target: Gal4S6S(b1-4)GlcNAc
# Method in brief: as §1
# Gal6P(b1-4)GlcNAc = target: Gal6P(b1-4)GlcNAc
# Method in brief: as §1
# Gal6S(b1-3)GlcNAc = target: Gal6S(b1-3)GlcNAc
# Method in brief: as §1
# Gal6S(b1-3)GlcNAc6S = target: Gal6S(b1-3)GlcNAc6S
# Method in brief: as §1
# Gal6S(b1-4)Glc = target: Gal6S(b1-4)Glc
# Method in brief: as §1
# Gal6S(b1-4)Glc6S = target: Gal6S(b1-4)Glc6S
# Method in brief: as §1
# Gal6S(b1-4)GlcNAc = target: Gal6S(b1-4)GlcNAc
# Method in brief: as §1
# Gal6S(b1-4)GlcNAc6S = target: Gal6S(b1-4)GlcNAc6S
# Method in brief: as §1
# GalNAc(a1-3)Gal = target: GalNAc(a1-3)Gal
# Method in brief: as §1
# GalNAc(a1-3)GalNAc = target: GalNAc(a1-3)GalNAc
# Method in brief: as §1
# [5] = target: GalNAc(a1-3)GalNAc(b1-3)Gal(a1-4)Gal(b1-4)Glc
# Method in brief: as §1
# [6] = target: GalNAc(a1-3)GalNAc(b1-3)Gal(a1-4)Gal(b1-4)GlcNAc
# Method in brief: as §1
# GalNAc(b1-3)Gal = target: GalNAc(b1-3)Gal
# Method in brief: as §1
# [7] = target: GalNAc(b1-3)Gal(a1-4)Gal(b1-4)GlcNAc
# Method in brief: as §1
# [8] = target: GalNAc(b1-3)Gal(a1-4)Gal(b1-4)GlcNAc(b1-3)Gal(b1-4)Glc
# Method in brief: as §1
# [9] = target: GalNAc(b1-3)Gal(a1-6)Gal(b1-4)Glc
# Method in brief: as §1
# GalNAc(b1-3)GalNAc = target: GalNAc(b1-3)GalNAc
# Method in brief: as §1
# GalNAc(b1-3)GlcNAc = target: GalNAc(b1-3)GlcNAc
# Method in brief: as §1
# GalNAc(b1-4)Gal(b1-4)Glc = target: GalNAc(b1-4)Gal(b1-4)Glc
# Method in brief: as §1
# GalNAc(b1-4)GlcNAc = target: GalNAc(b1-4)GlcNAc
# Method in brief: as §1
# [10] = target: GalNAc(b1-4)GlcNAc(b1-2)Man
# Method in brief: as §1
# [11] = target: GalNAc(b1-4)GlcNAc(b1-2)Man(a1-3)[GalNAc(b1-4)GlcNAc(b1-2)Man(a1-6)]Man(b1-4)GlcNAc(b1-4)GlcNAc
# Method in brief: as §1
# [12] = target: GalNAc(b1-4)GlcNAc(b1-3)GalNAc(b1-4)GlcNAc
# Method in brief: as §1
# GalNAc(b1-4)GlcNAc6S = target: GalNAc(b1-4)GlcNAc6S
# Method in brief: as §1
# GalNAc(b1-6)GalNAc = target: GalNAc(b1-6)GalNAc
# Method in brief: as §1
# GalNAc3S(b1-4)GlcNAc = target: GalNAc3S(b1-4)GlcNAc
# Method in brief: as §1
# GalNAc3S(b1-4)GlcNAc3S = target: GalNAc3S(b1-4)GlcNAc3S
# Method in brief: as §1
# [13] = target: GalNAc3S(b1-4)[Fuc(a1-3)]GlcNAc
# Method in brief: as §1
# GalNAc4S6S(b1-4)GlcNAc = target: GalNAc4S6S(b1-4)GlcNAc
# Method in brief: as §1
# GalNAc6S(b1-4)GlcNAc = target: GalNAc6S(b1-4)GlcNAc
# Method in brief: as §1
# Glc(a1-4)Glc = target: Glc(a1-4)Glc
# Method in brief: as §1
# [14] = target: Glc(a1-4)Glc(a1-4)Glc(a1-4)Glc
# Method in brief: as §1
# Glc(a1-6)Glc(a1-6)Glc = target: Glc(a1-6)Glc(a1-6)Glc
# Method in brief: as §1
# [15] = target: Glc(a1-6)Glc(a1-6)Glc(a1-6)Glc
# Method in brief: as §1
# Glc(b1-4)Glc = target: Glc(b1-4)Glc
# Method in brief: as §1
# Glc(b1-6)Glc = target: Glc(b1-6)Glc
# Method in brief: as §1
# GlcA(b1-3)Gal = target: GlcA(b1-3)Gal
# Method in brief: as §1
# GlcA(b1-3)GlcNAc = target: GlcA(b1-3)GlcNAc
# Method in brief: as §1
# GlcA(b1-6)Gal = target: GlcA(b1-6)Gal
# Method in brief: as §1
# [16] = target: GlcA3S(b1-3)Gal(b1-4)GlcNAc(b1-2)Man
# Method in brief: as §1
# [17] = target: GlcA3S(b1-3)Gal(b1-4)GlcNAc(b1-3)Gal(b1-4)Glc
# Method in brief: as §1
# [18] = target: GlcNAc(a1-3)Gal(b1-4)GlcNAc
# Method in brief: as §1
# [19] = target: GlcNAc(a1-4)Gal(b1-3)GlcNAc
# Method in brief: as §1
# [20] = target: GlcNAc(a1-4)Gal(b1-4)GalNAc
# Method in brief: as §1
# [21] = target: GlcNAc(a1-4)Gal(b1-4)GlcNAc
# Method in brief: as §1
# [22] = target: GlcNAc(a1-4)Gal(b1-4)GlcNAc(b1-3)Gal(b1-4)Glc
# Method in brief: as §1
# [23] = target: GlcNAc(a1-4)Gal(b1-4)GlcNAc(b1-3)Gal(b1-4)GlcNAc
# Method in brief: as §1
# [24] = target: GlcNAc(a1-4)Gal(b1-4)GlcNAc(b1-3)Gal(b1-4)GlcNAc(b1-3)Gal(b1-4)GlcNAc
# Method in brief: as §1
# [25] = target: GlcNAc(a1-4)Gal(b1-4)GlcNAc(b1-3)Gal(b1-4)[Fuc(a1-3)]GlcNAc(b1-3)Gal(b1-4)[Fuc(a1-3)]GlcNAc
# Method in brief: as §1
binder,measurement,setting,value
B1,glycan array binding signal (z-score),[1],-0.046
same,glycan array binding signal (z-score),Gal3S(b1-4)Glc,-0.141
same,glycan array binding signal (z-score),Gal3S(b1-4)Glc6S,-0.193
same,glycan array binding signal (z-score),Gal3S(b1-4)GlcNAc,-0.214
same,glycan array binding signal (z-score),[2],-0.074
same,glycan array binding signal (z-score),[3],-0.148
same,glycan array binding signal (z-score),[4],-0.089
same,glycan array binding signal (z-score),Gal3S4S(b1-4)GlcNAc,-0.259
same,glycan array binding signal (z-score),Gal3S6S(b1-4)GlcNAc,-0.198
same,glycan array binding signal (z-score),Gal3S6S(b1-4)GlcNAc6S,-0.137
same,glycan array binding signal (z-score),Gal4S(b1-4)GlcNAc,-0.365
same,glycan array binding signal (z-score),Gal4S6S(b1-4)GlcNAc,-0.16
same,glycan array binding signal (z-score),Gal6P(b1-4)GlcNAc,-0.164
same,glycan array binding signal (z-score),Gal6S(b1-3)GlcNAc,-0.026
same,glycan array binding signal (z-score),Gal6S(b1-3)GlcNAc6S,5.91
same,glycan array binding signal (z-score),Gal6S(b1-4)Glc,0.838
same,glycan array binding signal (z-score),Gal6S(b1-4)Glc6S,4.82
same,glycan array binding signal (z-score),Gal6S(b1-4)GlcNAc,0.109
same,glycan array binding signal (z-score),Gal6S(b1-4)GlcNAc6S,1.79
same,glycan array binding signal (z-score),GalNAc(a1-3)Gal,-0.29
same,glycan array binding signal (z-score),GalNAc(a1-3)GalNAc,-0.059
same,glycan array binding signal (z-score),[5],-0.261
same,glycan array binding signal (z-score),[6],-0.268
same,glycan array binding signal (z-score),GalNAc(b1-3)Gal,-0.202
same,glycan array binding signal (z-score),[7],-0.145
same,glycan array binding signal (z-score),[8],-0.285
same,glycan array binding signal (z-score),[9],-0.24
same,glycan array binding signal (z-score),GalNAc(b1-3)GalNAc,-0.233
same,glycan array binding signal (z-score),GalNAc(b1-3)GlcNAc,-0.135
same,glycan array binding signal (z-score),GalNAc(b1-4)Gal(b1-4)Glc,-0.188
same,glycan array binding signal (z-score),GalNAc(b1-4)GlcNAc,0
same,glycan array binding signal (z-score),[10],-0.269
same,glycan array binding signal (z-score),[11],-0.198
same,glycan array binding signal (z-score),[12],-0.27
same,glycan array binding signal (z-score),GalNAc(b1-4)GlcNAc6S,-0.155
same,glycan array binding signal (z-score),GalNAc(b1-6)GalNAc,-0.301
same,glycan array binding signal (z-score),GalNAc3S(b1-4)GlcNAc,-0.321
same,glycan array binding signal (z-score),GalNAc3S(b1-4)GlcNAc3S,-0.153
same,glycan array binding signal (z-score),[13],-0.154
same,glycan array binding signal (z-score),GalNAc4S6S(b1-4)GlcNAc,-0.147
same,glycan array binding signal (z-score),GalNAc6S(b1-4)GlcNAc,-0.21
same,glycan array binding signal (z-score),Glc(a1-4)Glc,-0.148
same,glycan array binding signal (z-score),[14],-0.123
same,glycan array binding signal (z-score),Glc(a1-6)Glc(a1-6)Glc,-0.262
same,glycan array binding signal (z-score),[15],-0.319
same,glycan array binding signal (z-score),Glc(b1-4)Glc,-0.246
same,glycan array binding signal (z-score),Glc(b1-6)Glc,-0.317
same,glycan array binding signal (z-score),GlcA(b1-3)Gal,-0.162
same,glycan array binding signal (z-score),GlcA(b1-3)GlcNAc,-0.182
same,glycan array binding signal (z-score),GlcA(b1-6)Gal,1.13
same,glycan array binding signal (z-score),[16],-0.24
same,glycan array binding signal (z-score),[17],-0.272
same,glycan array binding signal (z-score),[18],-0.329
same,glycan array binding signal (z-score),[19],-0.129
same,glycan array binding signal (z-score),[20],-0.02
same,glycan array binding signal (z-score),[21],-0.296
same,glycan array binding signal (z-score),[22],-0.065
same,glycan array binding signal (z-score),[23],-0.202
same,glycan array binding signal (z-score),[24],-0.134
same,glycan array binding signal (z-score),[25],-0.13
